{
  "source": "PubChem BioAssay AID686971",
  "about": "(National Center for Advancing Translational Sciences (NCATS), 2013)",
  "note": "In all, about 360,000 compounds went through this assay and about 7,500 (2.1%) were called active. The inconclusive results got no clear call from the source; some entries with a clear call stand among them for comparison. Calls come from the whole dose curve; as a rule, active = well fitted cell-killing curve with a large enough effect; inconclusive = small, poorly fitted or top-dose-only effect, or effect the other way, or another doubt; inactive = no such curve, though single readings can be large or run the other way. No potency is given beside an inconclusive call; the fits are too rough. Potency is the fitted concentration of half-maximal effect; tags give direction and shape of the fitted curve.",
  "data": [
    {"test": "qHTS for induction of synthetic lethality in tumor cells producing 2HG: qHTS for the HT-1080-IDH1KD cell line;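 for activity, negative = toxicity: 0% = DMSO wells and -100% = cell-free medium wells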", "details": "HT-1080 IDH1 knockdown viability, ATP luminescence, 48 h; activity, negative = toxicity: at 46.1 µM (top of the series) unless noted", "method_in_brief": "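% activity derives from luminescence (CellTiter-Glo), normalised to DMSO and no-cell wells. HT-1080-IDH1KD cells, 750/well, had 48 h compound exposure at 37 °C.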", "values": [
      {"smiles": "COc1ccc(N=C2C=CC(=O)O2)cc1", "Potency": "inconclusive [cytotoxic, partial curve]"},
      {"smiles": "CC(=O)N(C1=C(N)C(=O)c2ccccc2C1=O)c1ccccc1", "Potency": "inconclusive [cytotoxic, partial curve]"},
      {"smiles": "CC(=O)Nc1cc(-c2ccc(N3CCN(C)CC3)cc2)cn2c(-c3ccc(F)c(Cl)c3)cnc12", "Potency": "active: 16.4 µM"},
      {"smiles": "COc1ccccc1-c1nnc(SC(C(=O)c2c[nH]c3ccccc23)c2ccccc2)n1C", "note": "(stereo not given)", "Potency": "inconclusive [cytotoxic, single point]"},
      {"smiles": "CCOC(=O)/C=C/C(=O)Nc1ccccc1C(=O)NC1CCCCC1", "Potency": "inconclusive [cytotoxic, single point]"},
      {"smiles": "Cc1ccc(Nc2nc(N)c3ccccc3n2)cc1C", "Potency": "inconclusive [cytotoxic, single point]"},
      {"smiles": "O=S(=O)(Nc1ccc(C(O)(C(F)(F)F)C(F)(F)F)cc1)c1ccc(Cl)c2nonc12", "Potency": "active: 14.6 µM"},
      {"smiles": "Cc1ccc(C(=O)COC(=O)C2C3C=CC(C3)C2C(=O)OCC(=O)c2ccc(C)c(C)c2)cc1C", "note": "(stereo not given)", "activity, negative = toxicity": "inactive: -1.19%"},
      {"smiles": "Cc1ccc(-c2nnc(OCc3nc4ccccc4n3C)c3ccccc23)cc1", "activity, negative = toxicity": "inactive: -0.066%"},
      {"smiles": "CN(CC(=O)NCc1ccccc1F)S(=O)(=O)c1ccc(Cl)cc1", "activity, negative = toxicity": "inactive: -9.74%"},
      {"smiles": "O=C(Cn1c(COc2ccccc2)nc2ccccc21)Nc1cc(Cl)cc(Cl)c1", "Potency": "inconclusive [cytotoxic, partial curve]"},
      {"smiles": "Cc1ccc(Sc2cc(C)nc(-c3ccccn3)n2)cc1", "Potency": "inconclusive [cytotoxic, single point]"},
      {"smiles": "Cc1ccc(C)c(S(=O)(=O)Nc2ccc3oc(C)c(C(=O)O)c3c2)c1", "activity, negative = toxicity": "inactive: -2.17%"},
      {"smiles": "Cc1cc(C)nc(NC(=O)c2c(-c3ccccc3Cl)noc2C)c1", "activity, negative = toxicity": "inactive: 7.33%"},
      {"smiles": "COc1ccccc1CC(=O)Nc1cc2oc3ccccc3c2cc1OC", "Potency": "inconclusive [cytotoxic, single point]"},
      {"smiles": "COC(=O)c1c(NC(=O)c2ccccc2)sc(C(N)=O)c1C", "Potency": "inconclusive [cytotoxic, full curve]"},
      {"smiles": "CS(=O)(=O)Nc1cccc(C2=NN(S(C)(=O)=O)C(c3ccc4c(c3)OCO4)C2)c1", "note": "(stereo not given)", "Potency": "inconclusive [cytotoxic, single point]"},
      {"smiles": "O=C1C(=C(c2ccccc2)N2CCOCC2)Cc2ccccc21", "Potency": "active: 4.61 µM"},
      {"smiles": "CC1(C)NC(=O)N(CCCCOc2ccc(Cl)cc2C=O)C1=O", "Potency": "inconclusive [cytotoxic, single point]"},
      {"smiles": "COC(=O)C(=Cc1ccncc1)c1cccc2ccccc12", "activity, negative = toxicity": "inactive: -23.8%"}
    ]}
  ]
}
